The other results are listed elsewhere or left out.
How the values were obtained:
Assay in all cases: glycan array binding signal (z-score within array); higher = stronger binding
Details in all cases: glycan notation: IUPAC condensed, linker removed
[1] = target: Gal(b1-4)GlcNAc(b1-2)[Gal(b1-4)GlcNAc(b1-4)]Man(a1-3)[GlcNAc(b1-4)][Gal(b1-4)GlcNAc(b1-2)Man(a1-6)]Man(b1-4)GlcNAc(b1-4)GlcNAc
How it was run: (§1)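 The binding signal is a Z-score computed within each array and averaged over linkers. Arrays of the same protein sequence at different concentrations or buffers were also averaged together. Data originate from 3228 arrays in the Consortium for Functional Glycomics database, kept only where the protein sequence was available.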

[2] = target: Gal(b1-4)GlcNAc(b1-2)[Gal(b1-4)GlcNAc(b1-4)]Man(a1-3)[GlcNAc(b1-4)][Gal(b1-4)GlcNAc(b1-2)[Gal(b1-4)GlcNAc(b1-6)]Man(a1-6)]Man(b1-4)GlcNAc(b1-4)GlcNAc
How it was run: as §1

[3] = target: Gal(b1-4)GlcNAc(b1-2)[Gal(b1-4)GlcNAc(b1-6)]Man(a1-6)[Gal(b1-4)GlcNAc(b1-2)Man(a1-3)]Man(b1-4)GlcNAc(b1-4)GlcNAc
How it was run: as §1

[4] = target: Gal(b1-4)GlcNAc(b1-2)[Gal(b1-4)GlcNAc(b1-6)]Man(a1-6)[GlcNAc(b1-4)][Gal(b1-4)GlcNAc(b1-2)Man(a1-3)]Man(b1-4)GlcNAc(b1-4)GlcNAc
How it was run: as §1

[5] = target: Gal(b1-4)GlcNAc(b1-3)Gal(b1-3)GlcNAc
How it was run: as §1

[6] = target: Gal(b1-4)GlcNAc(b1-3)Gal(b1-4)Glc
How it was run: as §1

[7] = target: Gal(b1-4)GlcNAc(b1-3)Gal(b1-4)GlcNAc
How it was run: as §1

[8] = target: Gal(b1-4)GlcNAc(b1-3)Gal(b1-4)GlcNAc(b1-3)Gal(b1-4)GlcNAc
How it was run: as §1

[9] = target: Gal(b1-4)GlcNAc(b1-3)Gal(b1-4)[Fuc(a1-3)GlcNAc(b1-6)]Gal(b1-4)Glc
How it was run: as §1

[10] = target: Gal(b1-4)GlcNAc(b1-3)Gal(b1-4)[Fuc(a1-3)]GlcNAc(b1-3)Gal(b1-4)[Fuc(a1-3)]GlcNAc
How it was run: as §1

[11] = target: Gal(b1-4)GlcNAc(b1-3)GalNAc
How it was run: as §1

[12] = target: Gal(b1-4)GlcNAc(b1-3)[Gal(b1-4)GlcNAc(b1-6)]Gal(b1-4)GlcNAc
How it was run: as §1

[13] = target: Gal(b1-4)GlcNAc(b1-3)[Gal(b1-4)GlcNAc(b1-6)]GalNAc
How it was run: as §1

[14] = target: Gal(b1-4)GlcNAc(b1-3)[GlcNAc(b1-6)]Gal(b1-4)GlcNAc
How it was run: as §1

[15] = target: Gal(b1-4)GlcNAc(b1-6)Gal(b1-4)GlcNAc
How it was run: as §1

[16] = target: Gal(b1-4)GlcNAc(b1-6)Gal(b1-4)GlcNAc(b1-6)GalNAc
How it was run: as §1

[17] = target: Gal(b1-4)GlcNAc(b1-6)GalNAc
How it was run: as §1

[18] = target: Gal(b1-4)GlcNAc(b1-6)[Gal(b1-3)]GalNAc
How it was run: as §1

[19] = target: Gal(b1-6)Gal
How it was run: as §1

[20] = target: Gal3S(b1-3)GalNAc
How it was run: as §1

[21] = target: Gal3S(b1-3)GlcNAc
How it was run: as §1

[22] = target: Gal3S(b1-3)[Fuc(a1-4)]GlcNAc
How it was run: as §1

[23] = target: Gal3S(b1-4)Glc
How it was run: as §1

[24] = target: Gal3S(b1-4)Glc6S
How it was run: as §1

[25] = target: Gal3S(b1-4)GlcNAc
How it was run: as §1

[26] = target: Gal3S(b1-4)GlcNAc6S
How it was run: as §1

[27] = target: Gal3S(b1-4)[Fuc(a1-3)]Glc
How it was run: as §1

[28] = target: Gal3S(b1-4)[Fuc(a1-3)]Glc6S
How it was run: as §1

[29] = target: Gal3S4S(b1-4)GlcNAc
How it was run: as §1

[30] = target: Gal3S6S(b1-4)GlcNAc
How it was run: as §1

[31] = target: Gal3S6S(b1-4)GlcNAc6S
How it was run: as §1

[32] = target: Gal4S(b1-4)GlcNAc
How it was run: as §1

[33] = target: Gal4S6S(b1-4)GlcNAc
How it was run: as §1

[34] = target: Gal6S(b1-3)GlcNAc
How it was run: as §1

[35] = target: Gal6S(b1-3)GlcNAc6S
How it was run: as §1

[36] = target: Gal6S(b1-4)Glc
How it was run: as §1

[37] = target: Gal6S(b1-4)Glc6S
How it was run: as §1

[38] = target: Gal6S(b1-4)GlcNAc
How it was run: as §1

[39] = target: Gal6S(b1-4)GlcNAc6S
How it was run: as §1

[40] = target: GalNAc(a1-3)Gal
How it was run: as §1

[41] = target: GalNAc(a1-3)GalNAc
How it was run: as §1

[42] = target: GalNAc(a1-3)GalNAc(b1-3)Gal(a1-4)Gal(b1-4)Glc
How it was run: as §1

[43] = target: GalNAc(a1-3)GalNAc(b1-3)Gal(a1-4)Gal(b1-4)GlcNAc
How it was run: as §1

[44] = target: GalNAc(b1-3)Gal
How it was run: as §1

[45] = target: GalNAc(b1-3)Gal(a1-4)Gal(b1-4)GlcNAc
How it was run: as §1

B1: BC2L-D C-terminal domain (Burkholderia cenocepacia), Q39MQ9_BURS3 (protein)
chain: LVIVDAVTLLSAYPEASRDPAAPTVIDGRHLYVVSPGDAAQLGHNDSRLFTGLSPGDQLHLRETALALRAEVSVLFIRFALKDAGIVAPIELEVRDAATAVPDADDLLHPSCRPLKDHYWRSDVLAAGATTCTADFAVCDRDGTVSGYFRWETSIEIAGSQPDTKQPGFKPSSDRNGNFSLPPNTAFKAIFYANAADRQDLKLFIDDAPEPAATFVGNSEDGVRLFTLNSKGGKIRIEASANGRQSATDARLAPLSAGDTVWLGWLGAEDGADADYNDGIVILQWPIT
- glycan array binding signal (z-score) [1]: -0.161
- glycan array binding signal (z-score) [2]: -0.162
- glycan array binding signal (z-score) [3]: -0.162
- glycan array binding signal (z-score) [4]: -0.163
- glycan array binding signal (z-score) [5]: -0.244
- glycan array binding signal (z-score) [6]: -0.244
- glycan array binding signal (z-score) [7]: -0.242
- glycan array binding signal (z-score) [8]: -0.242
- glycan array binding signal (z-score) [9]: -0.165
- glycan array binding signal (z-score) [10]: 0.073
- glycan array binding signal (z-score) [11]: -0.242
- glycan array binding signal (z-score) [12]: -0.241
- glycan array binding signal (z-score) [13]: -0.163
- glycan array binding signal (z-score) [14]: -0.242
- glycan array binding signal (z-score) [15]: -0.248
- glycan array binding signal (z-score) [16]: -0.305
- glycan array binding signal (z-score) [17]: -0.2
- glycan array binding signal (z-score) [18]: -0.242
- glycan array binding signal (z-score) [19]: -0.164
- glycan array binding signal (z-score) [20]: -0.243
- glycan array binding signal (z-score) [21]: -0.203
- glycan array binding signal (z-score) [22]: -0.075
- glycan array binding signal (z-score) [23]: -0.239
- glycan array binding signal (z-score) [24]: -0.241
- glycan array binding signal (z-score) [25]: -0.239
- glycan array binding signal (z-score) [26]: -0.235
- glycan array binding signal (z-score) [27]: -0.177
- glycan array binding signal (z-score) [28]: -0.146
- glycan array binding signal (z-score) [29]: -0.246
- glycan array binding signal (z-score) [30]: -0.243
- glycan array binding signal (z-score) [31]: -0.238
- glycan array binding signal (z-score) [32]: -0.247
- glycan array binding signal (z-score) [33]: -0.243
- glycan array binding signal (z-score) [34]: -0.16
- glycan array binding signal (z-score) [35]: -0.16
- glycan array binding signal (z-score) [36]: -0.243
- glycan array binding signal (z-score) [37]: -0.241
- glycan array binding signal (z-score) [38]: -0.244
- glycan array binding signal (z-score) [39]: -0.249
- glycan array binding signal (z-score) [40]: -0.234
- glycan array binding signal (z-score) [41]: -0.239
- glycan array binding signal (z-score) [42]: -0.163
- glycan array binding signal (z-score) [43]: -0.165
- glycan array binding signal (z-score) [44]: -0.243
- glycan array binding signal (z-score) [45]: -0.237

From the supplement of paper PMC8728848
